Results taken from publication PMC4769172.
No constants are given. Whether binding was seen depends on the method and setting. For some of these results: In cells and extracts the contact can be indirect. Some entries that bind do so weakly or less than the wild type.

By UniProt entry, the sequences of proteins in these tests, tags left out. Where a name states a change or a piece, a line headed by the entry shows the natural chain unless it says otherwise. Chains listed by the source or under a name are the forms on record and can include a tag or linker. Residues count along the entry.
rat β2 subunit, wild type, myc-tagged (P54900, residues 30-215): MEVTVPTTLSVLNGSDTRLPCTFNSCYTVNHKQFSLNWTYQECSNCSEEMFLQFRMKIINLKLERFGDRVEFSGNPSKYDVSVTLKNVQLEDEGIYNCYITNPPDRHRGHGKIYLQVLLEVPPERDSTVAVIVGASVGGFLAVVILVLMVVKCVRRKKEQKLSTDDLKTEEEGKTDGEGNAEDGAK
rat β2 subunit C55S, myc-tagged (P54900, form named): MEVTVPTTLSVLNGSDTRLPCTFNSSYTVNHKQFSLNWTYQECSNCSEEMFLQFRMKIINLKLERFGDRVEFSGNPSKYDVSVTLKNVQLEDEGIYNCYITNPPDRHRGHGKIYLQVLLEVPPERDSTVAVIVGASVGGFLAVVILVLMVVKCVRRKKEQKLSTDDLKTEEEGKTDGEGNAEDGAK
UniProt Q7M730, residues 31-228: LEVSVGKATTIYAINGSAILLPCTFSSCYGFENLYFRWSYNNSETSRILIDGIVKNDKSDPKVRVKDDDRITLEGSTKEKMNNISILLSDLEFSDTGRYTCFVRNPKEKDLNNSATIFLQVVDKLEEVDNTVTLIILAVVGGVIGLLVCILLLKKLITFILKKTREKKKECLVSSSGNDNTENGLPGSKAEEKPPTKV

What was measured:
[1] = molecular target: human β2 extracellular domain (residues 30–153) C55A (human) (UniProt O60939); test: SEC; […] (250 mM KCl, 10 mM HEPES pH 7.4); both purified
[2] = molecular target: human β2 extracellular domain (residues 30–153) C55A, C72A, C75A (human) (UniProt O60939); test: as above
[3] = molecular target: rat β2 subunit, wild type, myc-tagged (rat) (UniProt P54900); test: non-reducing gel and Western blot of crude lysate (co-migration of a covalent complex); crude lysate of injected Xenopus oocytes, 10 μg a lane, non-reducing conditions, probed with anti-PanNav and anti-myc
[4] = molecular target: rat β4 subunit, wild type, myc-tagged (rat) (UniProt Q7M730); test: as above
[5] = molecular target: rat β2 subunit, wild type, myc-tagged (rat) (UniProt P54900); test: co-IP; lysate of injected Xenopus oocytes (1x PBS, 1% DDM, 10% glycerol, 1 mM EDTA); β-subunit pulled down with anti-myc antibody and protein G Dynabeads at 4°C; eluate treated with DTT before the tris-acetate gel; channel detected with anti-PanNav
[6] = molecular target: rat β4 subunit, wild type, myc-tagged (rat) (UniProt Q7M730); test: as above
[7] = molecular target: rat β2 subunit, wild type, myc-tagged (rat) (UniProt P54900); test: gel with DTT and Western blot of crude lysate (co-migration of a covalent complex); crude lysate of injected Xenopus oocytes, DTT added, probed with anti-PanNav and anti-myc
[8] = molecular target: rat β2 subunit C55S, myc-tagged (rat) (UniProt P54900); test: non-reducing gel and Western blot of crude lysate (co-migration of a covalent complex); crude lysate of injected Xenopus oocytes, 10 μg a lane, non-reducing conditions, probed with anti-PanNav and anti-myc
[9] = molecular target: rat β2 subunit C55S, myc-tagged (rat) (UniProt P54900); test: co-IP; lysate of injected Xenopus oocytes (1x PBS, 1% DDM, 10% glycerol, 1 mM EDTA); β-subunit pulled down with anti-myc antibody and protein G Dynabeads at 4°C; eluate treated with DTT before the tris-acetate gel; channel detected with anti-PanNav

Substance	binding [3]	binding [4]	binding [5]	binding [6]	binding [7]	binding [8]	also measured
human β2 extracellular domain (residues 30–153) C55A (from UniProt O60939 30-153) (domain or fragment)							binding [1]: no binding
human β2 extracellular domain (residues 30–153) C55A, C72A, C75A (from UniProt O60939 30-153) (domain or fragment)							binding [2]: no binding
rat Nav1.2a C910S (from UniProt P04775 1-2005)	no binding	no binding	no binding	no binding			
rat Nav1.2a, wild type (from UniProt P04775 1-2005)	binds	binds	binds	binds	no binding (condition: with DTT)	no binding	binding [9]: no binding
rat β2 subunit C55S, myc-tagged (from UniProt P54900 30-215)						no binding	
rat β2 subunit, wild type, myc-tagged (from UniProt P54900 30-215)	binds				no binding (condition: with DTT)		
